This list was built around the results that the source calls inconclusive (neither active nor inactive); the mix of calls is not that of the screen. For some assays here: Where the call is inconclusive, the potency comes from a doubtful curve fit. Activity calls are given as the source filed them. The call rests on the fitted dose curve; in most records, active means well fitted curve in the direction sought with a large enough effect; inconclusive means small, poorly fitted or top-dose-only effect, or another doubt; inactive means no such curve, though single readings can be large; an effect the other way counts as inactive or inconclusive.
Experiments:
[1] = test system: Zika virus NS2B-NS3 protease (linked construct); assay: Confirmatory screen NINDS AMC qHTS for Zika virus inhibitors (AID 1347152); further: nearly all actives have a fitted effect of over 70% in size; further: potency means the concentration at half of the fitted maximal effect
How it was run: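 Purified NS2B-NS3 protease with NS2B hydrophilic domain linked to NS3 protease domain by flexible linker, 1 nM final in 10 mM Tris-HCl pH 8.0, 0.01% Tween 20. Compounds preincubated 15 min, room temperature; Bz-Nle-KRR-AMC 10 microM (Km 18.3 µM); 15-min fluorescence change, 4-parameter Hill fit.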

[2] = ZIKV-mCherry secondary qHTS for Zika virus inhibitors (AID 1347158); further: potency means the concentration at half of the fitted maximal effect
How it was run: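 This orthogonal imaging screen measured ZIKV-mCherry infection of Vero cells exposed to compound, MOI 1, 48-72 h. Percent infection came from segmented nuclei scored mCherry-positive above 3 SD of negative controls.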

[3] = Confirmatory screen GU Rhodamine qHTS for Zika virus inhibitors qHTS (AID 1347157); further: nearly all actives have a fitted effect of over 70% in size
How it was run: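 Noncovalent NS2B hydrophilic domain/NS3 protease complex (25 nM final) in 10 mM Tris-HCl pH 8.0, 0.01% Tween 20, preincubated 15 min with compounds (up to 114 microM), then 1.5 microM Rhodamine110 substrate. Fluorescence change over 15 min fitted to 4-parameter Hill.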

[4] = qHTS of pediatric cancer cell lines to identify multiple opportunities for drug repurposing: Confirmatory screen for OHS-50 cells (AID 1347128); details: OHS-50 osteosarcoma cells viability; series mostly up to 45.9 µM;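 further: potency means the concentration at half of the fitted maximal effect; compound exposure lasted 48 h at 37 degrees C; nearly all actives have a fitted effect of over 55% in size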
How it was run: (§1)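 Viability after 48 h compound treatment at 37C, 500-1,000 cells/well, read as ATP luminescence with CellTiter-Glo. Primary screens used 11-point (MIPE, 0.78 nM-46 µM) or 8-point (NPC, 0.59 nM-46 µM) final concentrations; follow-up screens used 11-point dilutions.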

[5] = qHTS of pediatric cancer cell lines to identify multiple opportunities for drug repurposing: Confirmatory screen for SK-N-SH cells (AID 1347129);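 further: cells exposed to compound for 48 h before viability read; nearly all actives have a fitted effect of over 60% in size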; further: potency means the concentration at half of the fitted maximal effect
How it was run: as §1

[6] = qHTS of pediatric cancer cell lines to identify multiple opportunities for drug repurposing: Confirmatory screen for Saos-2 cells (AID 1347127); further: nearly all actives have a fitted effect of over 60% in size; further: potency means the concentration at half of the fitted maximal effect
How it was run: as §1

[7] = test system: Zika virus NS2B-NS3 protease (unlinked); assay: Optimization of GU AMC qHTS for Zika virus inhibitors: Unlinked NS2B-NS3 protease assay (AID 1347151); further: nearly all actives have a fitted effect of over 80% in size; further: potency means the concentration at half of the fitted maximal effect
How it was run: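 Noncovalent complex of NS2B hydrophilic domain and NS3 protease domain, 25 nM final, in 10 mM Tris-HCl pH 8.0, 0.01% Tween 20. AMC fluorescence change over 15 min at room temperature was fitted to a 4-parameter Hill equation.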

[8] = test system: Zika virus NS2B-NS3 protease (unlinked complex); assay: Confirmatory screen GU AMC qHTS for Zika virus inhibitors (AID 1347153); further: nearly all actives have a fitted effect of over 70% in size; further: potency means the concentration at half of the fitted maximal effect
How it was run: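 Noncovalent NS2B hydrophilic domain/NS3 protease complex (25 nM) in 10 mM Tris-HCl pH 8.0, 0.01% Tween 20 was preincubated 15 min at room temperature with compounds. Then 10 µM AMC substrate (Km 18.3 µM) was added; fluorescence was read over 15 min and fitted to a 4-parameter Hill equation.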

[9] = test system: Zika virus NS2B-NS3 protease; assay: Primary screen GU AMC qHTS for Zika virus inhibitors (AID 1347154); further: nearly all actives have a fitted effect of over 70% in size; further: potency means the concentration at half of the fitted maximal effect
How it was run: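 Unlinked Zika NS2B hydrophilic domain–NS3 protease complex at 25 nM in 10 mM Tris-HCl pH 8.0, 0.01% Tween 20, with an AMC peptide substrate. Fluorescence change (340/450 nm) over 15 min at room temperature, normalized to controls, fitted to 4-parameter Hill.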
Tags describe the fitted curve by direction and shape.

CN(C)c1ccc(O)c2c1C[C@H]1C[C@H]3[C@H](N(C)C)C(=O)C(C(N)=O)=C(O)[C@@]3(O)C(=O)C1=C2O
Potency [1]: inactive | Potency [2]: inconclusive: 22.4 µM [inhibitor, partial curve, poor fit]

Cc1c(C)n(Cc2ccc(-c3ccccc3C(=O)O)cc2)c2ccc(C(=O)N[C@@H](C)c3ccc([N+](=O)[O-])cc3)cc12
Potency [1]: inconclusive: 24.1 µM [inhibitor, partial curve]

Cc1ccc2c(c1)C(=O)[C@]1(O)CCN(c3ccccc3)C1=N2
Potency [3]: inactive

CN(C)CC[C@H](CSc1ccccc1)Nc1ccc(S(=O)(=O)NC(=O)c2ccc(N3CCN(Cc4ccccc4-c4ccc(Cl)cc4)CC3)cc2)cc1[N+](=O)[O-]
Potency [2]: inconclusive: 3.55 µM [inhibitor, full curve, poor fit]

CC(COc1ccccc1)N(CCCl)Cc1ccccc1 (stereo not drawn)
Potency [4]: inconclusive: 13.1 µM [cytotoxic, partial curve] | Potency [5]: inconclusive: 37.2 µM [cytotoxic, partial curve, poor fit]

CC(C)C[C@H](NC(=O)[C@H](CCc1ccccc1)NC(=O)CN1CCOCC1)C(=O)N[C@@H](Cc1ccccc1)C(=O)N[C@@H](CC(C)C)C(=O)[C@@]1(C)CO1
Potency [5]: active: 0.209 µM

Oc1ccc(-c2nc(-c3ccc(F)cc3)c(-c3ccncc3)[nH]2)cc1
Potency [6]: inconclusive: 1.65 µM [cytotoxic, full curve] | Potency [4]: active: 3.69 µM | Potency [7]: inconclusive: 23.8 µM [inhibitor, partial curve] | Potency [1]: inactive

CS(=O)(=O)N1CCN(Cc2cc3nc(-c4cccc5[nH]ncc45)nc(N4CCOCC4)c3s2)CC1
Potency [6]: inconclusive: 1.2 µM [cytotoxic, full curve, poor fit] | Potency [5]: active: 4.29 µM

CN(C)C(=O)[C@H](O)[C@H](Cc1ccccc1)NC(=O)c1cc2cc(Cl)ccc2[nH]1
Potency [1]: inconclusive: 27.1 µM [inhibitor, partial curve, poor fit] | Potency [8]: inactive | Potency [9]: inconclusive: 17.1 µM [inhibitor, partial curve]

Cc1nc(Nc2ncc(C(=O)Nc3c(C)cccc3Cl)s2)cc(N2CCN(CCO)CC2)n1
Potency [6]: inactive | Potency [2]: inactive

COc1cc([C@@H]2c3cc4c(cc3[C@H](O)[C@H]3COC(=O)[C@H]23)OCO4)cc(OC)c1OC
Potency [4]: inconclusive: 0.0293 µM [cytotoxic, full curve]

O=C1N(c2ccccc2)c2ccccc2C1(Cc1ccncc1)Cc1ccncc1
Potency [7]: inactive | Potency [9]: inactive

CCOC(=O)C1=C[C@]2(CC)CCCN3CCc4c(n1c1ccccc41)[C@@H]32
Potency [7]: inconclusive: 23.8 µM [inhibitor, partial curve, poor fit]

Cc1ccn(-c2ccc(-c3ncco3)cc2)c(=O)c1-c1ccc2nc(N)ncc2c1
Potency [1]: inconclusive: 42.9 µM [inhibitor, single point] | Potency [8]: active: 30.4 µM

N#CNC(=NCCCCCCOc1ccc(Cl)cc1)Nc1ccncc1
Potency [4]: inconclusive: 18.5 µM [cytotoxic, single point] | Potency [5]: inconclusive: 0.105 µM [cytotoxic, full curve] | Potency [9]: inconclusive: 27.1 µM [inhibitor, partial curve]

Clc1ccccc1C(c1ccccc1)(c1ccccc1)n1ccnc1
Potency [7]: inconclusive: 18.9 µM [inhibitor, single point]

CC(=O)OCC(=O)[C@@]1(O)[C@H](C)C[C@H]2[C@@H]3C=C(C)C4=Cc5c(cnn5-c5ccccc5)C[C@]4(C)[C@@H]3[C@@H](O)C[C@@]21C
Potency [4]: active: 16.5 µM

Cc1cc(C2CCCCC2)n(O)c(=O)c1
Potency [6]: inconclusive: 2.93 µM [cytotoxic, full curve] | Potency [4]: inconclusive: 4.14 µM [cytotoxic, partial curve] | Potency [9]: inconclusive: 13.6 µM [inhibitor, full curve]

Oc1ccc(-c2ccc(-c3cc(Nc4cccc(CNC5CC5)c4)n[nH]3)cc2)c(O)c1
Potency [5]: inactive

CCCCCCCCCCCC1=C(O)C(=O)C=C(O)C1=O
Potency [6]: inactive | Potency [4]: inconclusive: 0.0083 µM [rising, full curve] | Potency [5]: inconclusive: 37.2 µM [cytotoxic, single point] | Potency [9]: inconclusive: 13.6 µM [inhibitor, partial curve]
